Values joined by “and” are separate entries in the source; they are usually repeats but may differ in a detail not shown here. Equal entries are not always repeated. The whole screen tested about 48,000 compounds, of which about 1,200 (2.5%) were called active. Inconclusive results (about 2%) are left out.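 How the source made its calls: active means activation of at least 60% and not above a set upper limit (about 1 call in 100 departs from these limits); inconclusive means activation of 40% to 60%, or above that upper limit; inactive means activation under 40%.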 The list shows a part of the results.

The target in this assay is Probable G-protein coupled receptor 32 (Homo sapiens) (UniProt O75388). Briefly: qHTS for Agonists of Human Resolvin D1 Receptor DRV1. Further: 0% is about no effect. The settings on record: CHO-K1 GPR32 beta-arrestin PathHunter luminescence, 90 min; at 76.9 µM; hits give high values; zero percent set by DMSO-only wells. An outline of the steps: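 Agonism was scored as beta-arrestin recruitment to ProLink-fused GPR32 in stably transfected CHO-K1 cells, giving a chemiluminescent beta-Gal signal; compounds were incubated 90 min at 37 °C.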
Chain of UniProt O75388 (O75388 whole entry, looked up, the tested form may be a part): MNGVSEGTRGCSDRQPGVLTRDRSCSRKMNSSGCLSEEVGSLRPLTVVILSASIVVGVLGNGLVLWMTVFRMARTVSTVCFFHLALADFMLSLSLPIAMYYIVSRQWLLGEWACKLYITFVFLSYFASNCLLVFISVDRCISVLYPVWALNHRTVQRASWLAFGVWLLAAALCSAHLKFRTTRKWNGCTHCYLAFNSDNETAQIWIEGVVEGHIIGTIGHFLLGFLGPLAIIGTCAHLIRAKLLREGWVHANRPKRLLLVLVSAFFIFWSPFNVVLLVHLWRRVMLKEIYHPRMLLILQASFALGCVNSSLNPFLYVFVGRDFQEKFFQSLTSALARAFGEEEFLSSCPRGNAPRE
`O=C(c1ccc2c(c1)N(Cc1cccc(Cl)c1)C(=O)c1ccccc1S2(=O)=O)N1CCC(Cc2ccccc2)CC1`: the activation was inactive: -25%. On to `COc1ccc(CNC(=O)c2ccc3c(c2)NC(=O)C(CS(=O)(=O)Cc2ccccc2Cl)N3)cc1` (stereo not drawn), for which the activation was inactive: -20.7%. In the case of `CCOC(=O)c1cccc(NS(=O)(=O)c2c(C)nc3sc(C)cn3c2=O)c1` it was inactive: -2.59%. In the case of `CCOc1ccccc1N(C)C(=O)Cn1cnc2onc(-c3ccc(F)cc3)c2c1=O` it was inactive: -13.1%; in that of `COc1ccccc1-n1ncc2c(=O)[nH]c(SCC(=O)Nc3cccc(F)c3)nc21`, inactive: -7.9%; in that of `COc1ccc2c(CNCc3cccs3)c(C(=O)O)n(Cc3ccc(F)cc3Cl)c2c1`, inactive: 1.35%. The result for `CSc1cccc(N2C(=O)N(CC(=O)NCc3ccccc3Cl)c3ccccc3S2(=O)=O)c1` reads active: 67.1%; that for `Cc1cc(=O)n2c(C(=O)Nc3ccc(F)c(Cl)c3)c(C(=O)Nc3cccc(C)c3C)sc2n1`, inactive: -0.695%; that for `Cc1ccc(NC(=O)C(Cc2ccccc2)n2cccc2)c(C)c1` (stereo not drawn), inactive: -20.1%.

As for `CCOc1ccc(C(=O)c2oc3ccccc3c2NC(=O)c2cc(-c3ccccc3)on2)cc1`, the activation was inactive: 10.8%. On to `Cc1cccc2sc(N(Cc3cccnc3)C(=O)Cc3ccccc3)nc12`, for which the activation was inactive: -31.8%.

As to `Cc1nnc(SCc2ccccc2Cl)c2cc3occc3n12`, the activation is inactive: -23%. In the case of `CC(C)Oc1cccc(C(=O)Nc2ccc(-c3nc4cc(Cl)cc(Cl)c4o3)cc2)c1` it was inactive: 8.08%.

Regarding `Cc1cc(Nc2ccc(C(C)C)cc2)nc(-n2nc(C)cc2C)n1`, the activation was inactive: -5.39%.

`CCCCCn1c(=N)c(S(=O)(=O)c2ccccc2)cc2c(=O)n3cccc(C)c3nc21`: the activation was inactive: -6.57%.

Consider `COc1cc(-c2noc(-c3ccc(NC4CCCCC4)c([N+](=O)[O-])c3)n2)cc(OC)c1OC`, for which the activation is inactive: 2.24%. In the case of `Cc1ccc(NC(=O)CSc2nc(-c3cccs3)cc(C(F)(F)F)n2)cc1C` it was inactive: -6.07%. The result for `COc1ccc(C(=O)Nc2nc3ccc(S(=O)(=O)N4CCCC4)cc3s2)cc1` reads inactive: 5.2%; that for `COc1ccc(CNc2oc(COc3cccc(C)c3)nc2C#N)cc1`, inactive: 8.28%.

With `Cn1cc(S(=O)(=O)N2CCCC2)cc1C(=O)Nc1ccc(C(F)(F)F)cc1`, the activation was inactive: 9.46%.

`O=C(Nc1ccc(NC(=O)c2ccc(Br)cc2)c(Cl)c1)c1ccc(Br)cc1`: the activation was inactive: -2%. In the case of `COc1ccccc1-c1nnc(C2CCN(S(=O)(=O)c3ccccc3)CC2)o1` it was inactive: 3.92%; in that of `COc1cccc2cc(-c3nnc(-c4ccc(Cl)cc4)o3)c(=O)oc12`, inactive: -0.317%; in that of `CCc1nn(CC(=O)N2CCN(c3cccc(C(F)(F)F)c3)CC2)c(=O)c2cc3occc3n12`, inactive: 6.23%. The result for `COc1cccc(-c2nc(CS(=O)(=O)CC(=O)NCCCN3CCN(C)CC3)c(C)o2)c1` reads inactive: -19.1%.

As to `COc1cccc(N2CCN(C(=O)Cn3cnc4onc(-c5ccc(F)cc5)c4c3=O)CC2)c1`, the activation was inactive: 2.6%.

In the case of `CCCCCn1c(=O)[nH]c2cc(C(=O)Nc3ccc(OC)c(OC)c3)ccc2c1=O`, the activation is inactive: 2.29%. In the case of `COc1ccc(C)cc1NC(=O)C1CCCN(S(=O)(=O)c2ccc3c(c2)oc(=O)n3C)C1` (stereo not drawn) it was inactive: -7.39%; in that of `Cc1cccc(Cn2c(SCc3ccc(C(=O)NCCc4ccccc4)cc3)nc3cccnc32)c1`, inactive: -24.9%; in that of `CC(=O)Nc1ccc(S(=O)(=O)N2CCN(c3ccccc3)CC2)cc1`, inactive: 23.9%. The result for `CC(=O)Nc1cccc(NC(=O)C2(c3cccs3)CCOCC2)c1` reads inactive: 3.14%; that for `Cc1ccc(SCc2nc(-c3ccc(C(=O)NCc4ccccc4Cl)cc3)oc2C)cc1`, inactive: -15.3%.

As for `Cn1c(=O)c(=O)n(C)c2cc(N3CCCC3)c(NC(=O)c3ccc(C(C)(C)C)cc3)cc21`, the activation is inactive: -10.6%. For `COc1cccc(CNC(=O)CN(c2ccc(C(C)C)cc2)S(=O)(=O)c2c(C)n[nH]c2C)c1`, the activation was active: 70.8%.

With `CCOC(=O)CC(=O)CSc1nc2ccccc2c(=O)n1CCc1ccccc1`, the activation was inactive: -20.2%. Take `COc1cccc(-c2nnc3n(CCc4ccccc4)c(=O)c4ccccc4n23)c1O`: the activation was active: 77.1%. On to `COC(=O)c1c(NC(=O)c2nc(SCc3ccc(C)cc3)ncc2Cl)sc2c1CCCC2`, for which the activation was inactive: -7.76%. In the case of `COc1ccc(NC(=O)Cn2c(=O)n(CCC(=O)NCCc3ccc(OC)c(OC)c3)c(=O)c3ccccc32)cc1Cl` it was inactive: 5.58%. Consider `CCCN1C(=O)CN(C2CCCCC2)C(=O)C1c1ccc(OC)c(OC)c1` (stereo not drawn), for which the activation is inactive: 7.57%. In the case of `CCCCCNS(=O)(=O)c1ccc(N2CCCCS2(=O)=O)cc1` it was inactive: 12.9%; in that of `O=C(NC1CC1)c1ccc(Cn2c(SCc3ccccc3F)nc3cccnc32)cc1`, inactive: -1.95%. The result for `Cc1ccc2c(=O)cc(C(=O)Nc3ccc(S(=O)(=O)Nc4onc(C)c4C)cc3)oc2c1` reads inactive: -1.49%; that for `COc1cccc([C@@H]2Nc3ccc(C(=O)O)cc3[C@@H]3C=CC[C@@H]32)c1OC`, inactive: -13.1%. In the case of `Cc1cccc(-n2ncc(C(=O)N3CCN(C(=O)c4ccco4)CC3)c2C2CCN(C(=O)OC(C)(C)C)CC2)c1` it was inactive: -10.5%.

As to `Cc1ccc2c(c1)c(=O)c(C(=O)c1ccncc1)cn2CC(=O)Nc1ccc(C(C)C)cc1`, the activation is inactive: -6.87%. The result for `CC(NC(=O)C(=O)Nc1c2c(nn1-c1ccccc1)CSC2)c1ccccc1` (stereo not drawn) reads inactive: -21.5%; that for `COc1cccc(NC(=O)Cn2nc3c4ccccc4n(Cc4cccc(F)c4)cc-3c2=O)c1`, inactive: 4.81%; that for `Cc1nn(CCC(=O)NCc2ccc(N(C)C)cc2)c(=O)c2nn(-c3ccccc3)c(C)c12`, inactive: -4.46%. In the case of `Cc1ccc(N2CC(NC(=O)c3ccc(Br)o3)CC2=O)cc1C` (stereo not drawn) it was inactive: -3.81%; in that of `Cc1c(-c2ccc(O)cc2)n(Cc2ccc(OCCN3CCCCCC3)cc2)c2ccc(O)cc12`, inactive: 4.08%.

In the case of `CC(C)(C)c1ccc(C(=O)Nc2ccc(-c3nc4cc(Cl)ccc4o3)cc2)cc1`, the activation was inactive: -2.64%. On to `CCOc1ccc(NCc2cccn2-c2nnc(N3CCC(C(=O)NCc4ccc(C)cc4)CC3)s2)cc1`, for which the activation was inactive: -25%. In the case of `Cc1nnc(N2CCN(c3ccccc3F)CC2)c2c1nnn2Cc1ccccc1Cl` it was inactive: -2.17%; in that of `COc1ccc(N2CCN(CC(O)COc3ccc(C(C)C)c(C)c3)CC2)cc1` (stereo not drawn), active: 104%; in that of `COc1ccc2nc3oc(C(=O)N(C)c4ccc(Cl)cc4)cc3cc2c1`, inactive: 33.1%. In the case of `CCc1nnc(NC(=O)CSc2nccn2Cc2ccc(F)cc2)s1`, the activation is inactive: 11.4%. As to `c1cc(CN2CCCCC2)cc(OCCCNc2nc3ccccc3s2)c1`, the activation was inactive: -22.1% and inactive: -10.7%. The result for `O=C(c1ccc2c(c1)N(Cc1ccccc1F)C(=O)c1ccccc1S2=O)N1CCCCC1` (stereo not drawn) reads inactive: -29.7%. In the case of `CCN(CC)C(=O)Cn1c(=O)n(CCCCCC(=O)NCc2ccccc2)c(=O)c2sccc21` it was inactive: -2.51%; in that of `COc1ccccc1C(=O)Nc1ccccc1SCc1cc(=O)c2ccccc2[nH]1`, inactive: 4.19%.

Consider `CCOc1cc(/C=C(\C#N)C(=O)Nc2ccccc2C)ccc1OCc1cc(=O)n2nc(CC)sc2n1`, for which the activation is inactive: 7.57%. The result for `O=C(NC1CC(=O)N(c2ccc(F)cc2)C1)C1CCCCC1` (stereo not drawn) reads inactive: -2.56%; that for `CNCC(O)c1ccc(O)c(O)c1` (stereo not drawn), inactive: 43.7% and inactive: -2.2%; that for `COc1cccc(C(c2c(O)cc(C)n(Cc3ccco3)c2=O)N2CCC(C)CC2)c1` (stereo not drawn), inactive: -11%. In the case of `Cc1nnc(SCC(=O)NCc2ccc(N(C)C)cc2)c2nn(-c3ccccc3)c(C)c12` it was inactive: -5.28%. `Cc1ccc(NC(=O)C2CCN(c3nnc(-n4cccc4)s3)CC2)cc1Cl`: the activation was inactive: 8.65%.

Regarding `CCOc1ccc(-c2csc(-c3nc(-c4ccc(Br)s4)cs3)n2)cc1`, the activation is inactive: 11.8%. The result for `COc1ccc(OC)c2sc(N(Cc3cccnc3)C(=O)c3ccc(C(C)=O)cc3)nc12` reads inactive: -27.6%; that for `O=C(NCc1ccccc1)c1cc2ccccc2o1`, inactive: -3.75%; that for `COc1ccc(-c2nc(C)c(CCNC(=O)c3cc(OC)c(OC)c(OC)c3)s2)cc1OC`, inactive: -5.19%. The result for `Cc1ccc(C(=O)COC(=O)c2cccc(NC(=O)c3ccc(Br)cc3)c2)cc1` reads inactive: 6.43%. As for `Cc1ccc(C)c(N2CCN(S(=O)(=O)c3ccc4c(c3)CC(=O)N4C)CC2)c1`, the activation was inactive: -8.99%. The result for `CC(C)CCNC(=O)c1cccc(-n2cnc3cccnc32)c1` reads inactive: -14.8%. In the case of `CCCCN(CC)CCCNC(=O)C1CCN(c2nc3ccc(CC)cc3s2)CC1` it was inactive: -4.28%; in that of `Cc1ccc2c(c1)-c1c(c(C(=O)NCCc3ccccc3)nn1C)CS2`, inactive: -0.257%; in that of `Cc1cccc(CS(=O)(=O)Cc2ccc(C(=O)NC(C)c3ccccc3)o2)c1` (stereo not drawn), inactive: -4.86%. Consider `COc1cccc(CNC(=O)Cn2c(SCC(=O)Nc3ccc(F)cc3)nc3ccccc32)c1`, for which the activation was inactive: 46.3%. The result for `COc1ccc(CCC(=O)NCc2nc3cccnc3n2Cc2ccc(C)cc2)cc1` reads inactive: -29.1%; that for `CCOCCCNC(=O)c1[nH]c2cc(OC)ccc2c1Sc1ccccc1`, inactive: -3.6%. In the case of `Cc1cccc(N(CC(=O)Nc2cccc(Cl)c2C)S(C)(=O)=O)c1C` it was inactive: 38.4%; in that of `Cc1ccc(S(=O)(=O)NCC(c2ccco2)N2CCN(c3ccccc3F)CC2)cc1` (stereo not drawn), inactive: -32%; in that of `Cc1cccc(Nc2nc3ccccc3n3c(N)nnc23)c1`, inactive: -30.7%. The result for `Cc1cc2n(n1)CCCN2C(=O)Nc1cccc(C)c1C` reads inactive: 4.79%.

Source of the values: PubChem BioAssay AID1346428 (National Center for Advancing Translational Sciences (NCATS), 2018).
